The antibiotic and cytotoxicity screens of Wong et al. (2023)
The other results are listed elsewhere or left out.

What follows are molecules tested on HepG2 (assay: cytotoxicity call (relative viability < 0.9)). Conditions: 10 µM.

Row | Compound | cytotoxicity call
1 | c1coc(CNC[C@H]2Cn3nncc3CO2)c1 | inactive
2 | C[C@H](CO)N1C[C@H](C)[C@@H](CN(C)Cc2ccc3c(c2)OCO3)OCCCC[C@H](C)Oc2ccc(NC(=O)Nc3ccc(F)cc3)cc2C1=O | active
3 | Cc1ccc(S(=O)(=O)N(C)C[C@H]2OCCCC[C@H](C)Oc3ccc(NC(=O)Cc4ccccc4)cc3C(=O)N([C@@H](C)CO)C[C@@H]2C)cc1 | active
4 | C[C@@H]1CN([C@H](C)CO)C(=O)Cc2cc(NC(=O)Cn3cnnn3)ccc2O[C@@H]1CN(C)CC1CCCCC1 | inactive
5 | CCCN(C)C[C@@H]1OCCCC[C@@H](C)Oc2ccc(NS(=O)(=O)c3cn(C)cn3)cc2C(=O)N([C@@H](C)CO)C[C@@H]1C | inactive
6 | C[C@H](CO)N1C[C@H](C)[C@H](CN(C)C(=O)NC2CCCCC2)OCCCC[C@H](C)Oc2ccc(NC(=O)Cc3ccccc3)cc2C1=O | inactive
7 | COc1cccc(-c2ccc3c(c2)O[C@H](CN(C)C(=O)C2CCC2)[C@@H](C)CN([C@H](C)CO)S3(=O)=O)c1 | inactive
8 | C[C@@H]1CCCCO[C@@H](CN(C)Cc2ccccc2)[C@@H](C)CN([C@@H](C)CO)C(=O)c2cc(NC(=O)Nc3ccccc3)ccc2O1 | inactive
9 | N[C@@H]1[C@@H](O)[C@H](O)[C@@H](CO)O[C@H]1O | inactive
10 | CS(=O)(=O)N1C[C@@H]2OCCN(c3cnccn3)[C@H]2C1 | inactive
11 | COc1ccc(C#Cc2cnc3c(c2)C(=O)N([C@@H](C)CO)C[C@@H](C)[C@H](CN(C)CC2CCOCC2)O3)cc1 | inactive
12 | Cc1nc2c(C)cccc2c2c1COC2 | inactive
